{"source": "the supplement of paper PMC11417369", "note": "This is one part of the list."}
{"system": "PfAP2-HC AP2 domain (GST-tagged)", "test": "gcPBM binding intensity (ln(normalized median fluorescence intensity)); higher = stronger DNA binding", "method_in_brief": "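Binding of GST-tagged P. falciparum DNA-binding domains, expressed in E. coli and used at about 25 μg on average, was carried out for 1 h in 1× PBS containing 1% milk, 0.2 mg/ml BSA, 0.5% salmon testes DNA and 0.03% Triton X-100. The target was an Agilent 4 × 180k array of primer-extended double-stranded 36-bp intergenic genomic probes plus negative controls, read with Alexa488 anti-GST antibody at 488 nm. Binding intensity is the highest Masliner-normalised natural-log median intensity across replicate spots of either probe orientation.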"}
{"sequence": "AATAAAAAGATATTCTCCTTGTTCCTTTTTTTTAAA [CACACA_negctrl_site1147]", "gcPBM binding intensity (ln)": 9.46}
{"sequence": "TATATATATGTATGATGTACATATATGCATATATAT [XGTACX_site3399]", "gcPBM binding intensity (ln)": 9.6}
{"sequence": "TTAATTAAATATTATACACACAAAAAAATAATTTTA [CACACA_site96]", "gcPBM binding intensity (ln)": 9.61}
{"sequence": "ATTTTAACCAATTATTGTACTTGGTTATTCTTTTTT [XGTACX_site7453]", "gcPBM binding intensity (ln)": 9.93}
{"sequence": "AATCTATATTGACACACACACAAAAAAAAAAAAAAA [CACACA_site6739]", "gcPBM binding intensity (ln)": 10.1}
{"sequence": "ATATTTTTTTTCTTCACACACATGAATTATATATAA [CACACA_site3216]", "gcPBM binding intensity (ln)": 9.98}
{"sequence": "ATATATATATTAAAGGTGCACAAATAAATATATACA [GTGCAC_site9532]", "gcPBM binding intensity (ln)": 9.87}
{"sequence": "AATATACACATTGTGAAATAACAAAAAAGGCAAAAA [CACACA_negctrl_site1014]", "gcPBM binding intensity (ln)": 10}
{"sequence": "CCTATTTATATATACACACACATATATAAATAAATA [CACACA_site2991]", "gcPBM binding intensity (ln)": 10.1}
{"sequence": "ATGGAAAAATGTATATATAAAATAAATATATTATAT [CACACA_negctrl_site1712]", "gcPBM binding intensity (ln)": 9.68}
{"sequence": "CATATTAAAAATACATGTACATATATATTTAATATA [XGTACX_site8580]", "gcPBM binding intensity (ln)": 9.51}
{"sequence": "GTTAAAATAATATTATGTACATATATATAAAAATAT [XGTACX_site8512]", "gcPBM binding intensity (ln)": 9.67}
{"sequence": "TATAAATATGTGTTTACACACAATAATGAATTAAAA [CACACA_site6555]", "gcPBM binding intensity (ln)": 9.81}
{"sequence": "GTTTGTAAATATTTTACACACATATTTATTTATATA [CACACA_site6632]", "gcPBM binding intensity (ln)": 9.77}
{"sequence": "AACCTCAAATACACAAGTACGTATAATAAGGAACAA [XGTACX_site4304]", "gcPBM binding intensity (ln)": 9.8}
{"sequence": "ATTCAATAATTGTTTTTTTTCTTTTTGTTTTTGTTT [GTGCAC_negctrl_site563]", "gcPBM binding intensity (ln)": 9.62}
{"sequence": "TATCTCATTTGGAATTGTACTAACAGATACTTGTTT [XGTACX_site2672]", "gcPBM binding intensity (ln)": 9.67}
{"sequence": "TATACGCATATTTTTACACACATATTTTTTCATATA [CACACA_site2546]", "gcPBM binding intensity (ln)": 10.1}
{"sequence": "TATATATAATATATATGTACATATGTATAATATTTA [XGTACX_site4400]", "gcPBM binding intensity (ln)": 9.61}
{"sequence": "TTATGAAAAAAATACTGTACACAATATGACGAAAGT [XGTACX_site2283]", "gcPBM binding intensity (ln)": 9.81}
{"sequence": "TTTTAAATAAATCATGCATGCACATATAATTATATT [TGCATGCA_site151]", "gcPBM binding intensity (ln)": 9.71}
{"sequence": "CATATTAGGACAAAGTGTACATATATATATATATAT [XGTACX_site1172]", "gcPBM binding intensity (ln)": 9.65}
{"sequence": "AAATTATTGAAATACGCATGTGTTTTTTTTTTTTTT [TGCATGCA_site391]", "gcPBM binding intensity (ln)": 9.6}
{"sequence": "AATATTACGTCTGGACGTACAAATCTTTTTCGTGTC [XGTACX_site6644]", "gcPBM binding intensity (ln)": 9.6}
{"sequence": "ACATTTTTTTTTTTTTTTTTTTTCTTACATCATGCA [CACACA_negctrl_site1413]", "gcPBM binding intensity (ln)": 9.54}
{"sequence": "ATATAAAGGTTTATTAGTACACATTAGAATACTTTT [XGTACX_site4492]", "gcPBM binding intensity (ln)": 9.52}
{"sequence": "TTTTACTAGATATATACACACATTATACCTATAGAT [CACACA_site7530]", "gcPBM binding intensity (ln)": 9.87}
{"sequence": "GAAATATTTTGTTGTGCATGCGACATTAAATAAAAA [TGCATGCA_site331]", "gcPBM binding intensity (ln)": 9.59}
{"sequence": "AAAAAATATATATCACGTGGTAATATATATATATAT [XGTACX_negctrl_site252]", "gcPBM binding intensity (ln)": 9.66}
{"sequence": "TACATCTGTATATAAACACACAACAAAAATGCTTAC [CACACA_site3814]", "gcPBM binding intensity (ln)": 9.75}
{"sequence": "AAATTAAATCCGCACGCACACACACCGATTAATAAA [CACACA_site9321]", "gcPBM binding intensity (ln)": 10.2}
{"sequence": "AATATATAAATAGATACACACATACATACATACATA [CACACA_site4301]", "gcPBM binding intensity (ln)": 10.2}
{"sequence": "TTTTTTTTTTTAATATGTACGTAAAATAAGTTTAAA [XGTACX_site6495]", "gcPBM binding intensity (ln)": 9.27}
{"sequence": "TATTATATTTATTTATGTACACATATACTTAAATAA [XGTACX_site1355]", "gcPBM binding intensity (ln)": 9.69}
{"sequence": "TGTAATACAGAAAAAAGTACTAAAAAGAAAAGGATT [XGTACX_site3176]", "gcPBM binding intensity (ln)": 9.82}
{"sequence": "ACACCTATAAATTAAGTGCATTTTTTTTGATGTTAT", "gcPBM binding intensity (ln)": 9.71}
{"sequence": "ACATTCAATCTACTGTGTACATATTAAACTTTGAAA [XGTACX_site2913]", "gcPBM binding intensity (ln)": 9.66}
{"sequence": "TCCTTATAAAAATACACACAAACTTTAATTAAAACA [CACACA_site3730]", "gcPBM binding intensity (ln)": 9.86}
{"sequence": "ATATATATACAACAAGCATGCAGTAATTTTTTTTTT [TGCATGCA_site728]", "gcPBM binding intensity (ln)": 9.81}
{"sequence": "CTATAATAACATAACACACACATGTATTTATAGGTG [CACACA_site6298]", "gcPBM binding intensity (ln)": 9.87}
{"sequence": "TATAAATAGATATATACACACTTGTGCAGAATATTA [CACACA_site7112]", "gcPBM binding intensity (ln)": 9.79}
{"sequence": "CCCAGGTGCTCGTAACGTACTTACATCAAATATTAT [XGTACX_site4617]", "gcPBM binding intensity (ln)": 9.68}
{"sequence": "AGAAGTGTAAAAGTTACACACACAAACTTGTCATTT [CACACA_site4613]", "gcPBM binding intensity (ln)": 10.1}
{"sequence": "AGGCGTGAAATATACGTACACACATTATTTATATTT [CACACA_site2558]", "gcPBM binding intensity (ln)": 9.88}
{"sequence": "AAATAAAAAGTAAAGCGTACAAATGATCAAATAATA [XGTACX_site7898]", "gcPBM binding intensity (ln)": 9.84}
{"sequence": "TAATCAACAAAATCTACACACTAAAATGAAATATAA [CACACA_site3749]", "gcPBM binding intensity (ln)": 9.76}
{"sequence": "AAATATTTATAAATTGCACACAAATAATAACATTAT [CACACA_site8737]", "gcPBM binding intensity (ln)": 9.79}
{"sequence": "ATAATAATATATACATGTACATATATATATATATAT [XGTACX_site3455]", "gcPBM binding intensity (ln)": 9.74}
{"sequence": "TAACATTACTCTTAACTCTTTTGGATACCAACTTAT [XGTACX_negctrl_site82]", "gcPBM binding intensity (ln)": 9.79}
{"sequence": "TAATTATTTTTATATTGTACAATATGTAAATATATA [XGTACX_site592]", "gcPBM binding intensity (ln)": 9.39}
{"sequence": "TTTTTTGAATTTAAAAGTACAGGCTTTTACCAAATA [XGTACX_site1356]", "gcPBM binding intensity (ln)": 9.29}
{"sequence": "AAAAAAAAAAAAAAAAGTACATACAACATTATGAAA [XGTACX_site207]", "gcPBM binding intensity (ln)": 9.55}
{"sequence": "AATTAAAAAAAAAAAAAAAAAAAAAAATGAAAAAAA [CACACA_negctrl_site1073]", "gcPBM binding intensity (ln)": 9.24}
{"sequence": "ATAAATAAATAAATCTGTACATATGTATATGTATAT [XGTACX_site4537]", "gcPBM binding intensity (ln)": 9.77}
{"sequence": "ACTTAATTTTTTTTATGTACTTATTTAAAAAATTTT [XGTACX_site2712]", "gcPBM binding intensity (ln)": 9.56}
{"sequence": "CTTAAAGGGAAAAATACACACATATAAATATTATGT [CACACA_site2225]", "gcPBM binding intensity (ln)": 9.77}
